Laboratory results: patent US20250145963A1, “Improved Differentiation Method” (Koninklijke Nederlandse Akademie Van Wetenschappen, priority 2016, published 2025)

Experiments:
intestinal organoids [1] = assay: Cell cycle analysis of intestinal organoids (EdU, KI67, Hoechst DNA content); type: cell-based, mouse; details: for quiescence of Lgr5+ cells: FIG. 2B
ERK phosphorylation = ERK phosphorylation in organoids (histology); type: cell-based, mouse; details: as early as after 1 h
intestinal organoids [2] = assay: Cellular composition of organoids after EGFRi treatment (goblet and Tuft cell staining)
Lgr5+ stem cells = assay: RNA sequencing of FACS-isolated active and quiescent Lgr5+ stem cells; details: d4, p-adj<0.001

Row | SMILES | quiescence of Lgr5+ cells (intestinal organoids [1]) | DNA content (Hoechst DNA staining), cell cycle phase (intestinal organoids [1]) | ERK phosphorylation (ERK phosphorylation) | number of goblet cells (Muc2, PAS, Alcian blue) (intestinal organoids [2]) | absolute number of Dclk1+ Tuft cells (intestinal organoids [2]; 11.3±6.6 in ENR) | Etv4 down-regulation in quiescent Lgr5+ stem cells (Lgr5+ stem cells) [×]
1 | O=C(Nc1ccc2[nH]nc(-c3ccncc3)c2c1)[C@@H]1CCN(CC(=O)N2CCN(c3ccc(-c4ncccn4)cc3)CC2)C1 [SCH772984] | induced quiescence of Lgr5+ cells | – | – | – | – | –
2 | O=C(NOC[C@H](O)CO)c1ccc(F)c(F)c1Nc1ccc(I)cc1F [PD0325901] | induced quiescence of Lgr5+ cells | – | – | – | – | –
3 | COc1cc2ncnc(Nc3ccc(F)c(Cl)c3)c2cc1OCCCN1CCOCC1 [Gefitinib] | – | all cells were in G0/G1 phase | reduced ERK phosphorylation | significant reduction in the number of goblet cells | 35.8±8.8 | 7.7
